According to patent publication US20210015895A1 (PROCLARA BIOSCIENCES, published 2021):

B1: Polypeptide No. 63 (Fc fusion)
chain: AETVESCLAKPHTENSFTNVWKDDKTLDRYANYEGCLWNATGVVVCTGDETQCKGTWVPIGLAIPENEGGGSEGGGSEGGGSEGGGTKPPEYGDTPIPGYTYINPLDGTYPPGTEQNPANPNPSLEESQPLNTFKFQNNRFRNRQGALTVYTGTFTQGTDPVKTYYQYTPVSSKAMYDAYWNGKFRDCAFHSGFNEDPFVCEYQGQSSDLPQPPANAGGESGGGSGGGSEGGGSEGGGSEGGGSEGGGSGGGSGSGARS[human IgG1 Fc not printed]
B2: Polypeptide No. 64 (Fc fusion)
chain: B1 chain with K135T
B3: Polypeptide No. 65 (Fc fusion)
chain: B1 chain with K135M, R140Q
B4: Polypeptide No. 66 (Fc fusion)
chain: B1 chain with K54R
B5: N1-N2-human IgG Fc fusion protein of SEQ ID NO:2 with D178G (Fc fusion)
chain: B1 chain with K54Y, K135M, D178G
B6: N1-N2-human IgG Fc fusion protein of SEQ ID NO:2 with D178Q (Fc fusion)
chain: B1 chain with K54Y, K135M, D178Q
B7: N1-N2-human IgG Fc fusion protein of SEQ ID NO:2 with D178S (Fc fusion)
chain: B1 chain with K54Y, K135M, D178S
B8: N1-N2-human IgG Fc fusion protein of SEQ ID NO:2 with D178T (Fc fusion)
chain: B1 chain with K54Y, K135M, D178T
B9: N1-N2-human IgG Fc fusion protein of SEQ ID NO:2 with F141D (Fc fusion)
chain: B1 chain with K54Y, K135M, F141D
B10: N1-N2-human IgG Fc fusion protein of SEQ ID NO:2 with F141E (Fc fusion)
chain: B1 chain with K54Y, K135M, F141E
B11: N1-N2-human IgG Fc fusion protein of SEQ ID NO:2 with G48H (Fc fusion)
chain: B1 chain with G48H, K54Y, K135M
B12: N1-N2-human IgG Fc fusion protein of SEQ ID NO:2 with G48K (Fc fusion)
chain: B1 chain with G48K, K54Y, K135M
B13: N1-N2-human IgG Fc fusion protein of SEQ ID NO:2 with G48R (Fc fusion)
chain: B1 chain with G48R, K54Y, K135M
B14: N1-N2-human IgG Fc fusion protein of SEQ ID NO:2 with G48S (Fc fusion)
chain: B1 chain with G48S, K54Y, K135M
B15: N1-N2-human IgG Fc fusion protein of SEQ ID NO:2 with G48T (Fc fusion)
chain: B1 chain with G48T, K54Y, K135M
B16: N1-N2-human IgG Fc fusion protein of SEQ ID NO:2 with M135A (Fc fusion)
chain: B1 chain with K54Y, K135A
B17: N1-N2-human IgG Fc fusion protein of SEQ ID NO:2 with M135D (Fc fusion)
chain: B1 chain with K54Y, K135D
B18: N1-N2-human IgG Fc fusion protein of SEQ ID NO:2 with M135G (Fc fusion)
chain: B1 chain with K54Y, K135G
B19: N1-N2-human IgG Fc fusion protein of SEQ ID NO:2 with M135H (Fc fusion)
chain: B1 chain with K54Y, K135H
B20: N1-N2-human IgG Fc fusion protein of SEQ ID NO:2 with M135N (Fc fusion)
chain: B1 chain with K54Y, K135N
B21: N1-N2-human IgG Fc fusion protein of SEQ ID NO:2 with M135R (Fc fusion)
chain: B1 chain with K54Y, K135R
B22: N1-N2-human IgG Fc fusion protein of SEQ ID NO:2 with M176G (Fc fusion)
chain: B1 chain with K54Y, K135M, M176G
B23: N1-N2-human IgG Fc fusion protein of SEQ ID NO:2 with M176H (Fc fusion)
chain: B1 chain with K54Y, K135M, M176H
B24: N1-N2-human IgG Fc fusion protein of SEQ ID NO:2 with M176K (Fc fusion)
chain: B1 chain with K54Y, K135M, M176K
B25: N1-N2-human IgG Fc fusion protein of SEQ ID NO:2 with M176N (Fc fusion)
chain: B1 chain with K54Y, K135M, M176N
B26: N1-N2-human IgG Fc fusion protein of SEQ ID NO:2 with M176R (Fc fusion)
chain: B1 chain with K54Y, K135M, M176R
B27: N1-N2-human IgG Fc fusion protein of SEQ ID NO:2 with R140A (Fc fusion)
chain: B1 chain with K54Y, K135M, R140A
B28: N1-N2-human IgG Fc fusion protein of SEQ ID NO:2 with R140D (Fc fusion)
chain: B1 chain with K54Y, K135M, R140D
B29: N1-N2-human IgG Fc fusion protein of SEQ ID NO:2 with R140E (Fc fusion)
chain: B1 chain with K54Y, K135M, R140E
B30: N1-N2-human IgG Fc fusion protein of SEQ ID NO:2 with R140G (Fc fusion)
chain: B1 chain with K54Y, K135M, R140G
B31: N1-N2-human IgG Fc fusion protein of SEQ ID NO:2 with R140H (Fc fusion)
chain: B1 chain with K54Y, K135M, R140H
B32: N1-N2-human IgG Fc fusion protein of SEQ ID NO:2 with S173G (Fc fusion)
chain: B1 chain with K54Y, K135M, S173G
B33: N1-N2-human IgG Fc fusion protein of SEQ ID NO:2 with S173P (Fc fusion)
chain: B1 chain with K54Y, K135M, S173P
B34: N1-N2-human IgG Fc fusion protein of SEQ ID NO:2 with T51G (Fc fusion)
chain: B1 chain with T51G, K54Y, K135M
B35: N1-N2-human IgG Fc fusion protein of SEQ ID NO:2 with T51H (Fc fusion)
chain: B1 chain with T51H, K54Y, K135M
B36: N1-N2-human IgG Fc fusion protein of SEQ ID NO:2 with T51K (Fc fusion)
chain: B1 chain with T51K, K54Y, K135M
B37: N1-N2-human IgG Fc fusion protein of SEQ ID NO:2 with T51N (Fc fusion)
chain: B1 chain with T51N, K54Y, K135M
B38: N1-N2-human IgG Fc fusion protein of SEQ ID NO:2 with T51P (Fc fusion)
chain: B1 chain with T51P, K54Y, K135M
B39: N1-N2-human IgG Fc fusion protein of SEQ ID NO:2 with T51Q (Fc fusion)
chain: B1 chain with T51Q, K54Y, K135M
B40: N1-N2-human IgG Fc fusion protein of SEQ ID NO:2 with T51R (Fc fusion)
chain: B1 chain with T51R, K54Y, K135M
B41: N1-N2-human IgG Fc fusion protein of SEQ ID NO:2 with T56G (Fc fusion)
chain: B1 chain with K54Y, T56G, K135M
B42: N1-N2-human IgG Fc fusion protein of SEQ ID NO:2 with T56R (Fc fusion)
chain: B1 chain with K54Y, T56R, K135M
B43: N1-N2-human IgG Fc fusion protein of SEQ ID NO:2 with W181G (Fc fusion)
chain: B1 chain with K54Y, K135M, W181G
B44: N1-N2-human IgG Fc fusion protein of SEQ ID NO:2 with W181K (Fc fusion)
chain: B1 chain with K54Y, K135M, W181K
B45: N1-N2-human IgG Fc fusion protein of SEQ ID NO:2 with Y54H (Fc fusion)
chain: B1 chain with K54H, K135M
B46: N1-N2-human IgG Fc fusion protein of SEQ ID NO:2 with Y54P (Fc fusion)
chain: B1 chain with K54P, K135M

biological target: T1, Aβ42 fibers (UniProt P05067 fragment); experiment: ELISA on coated Aβ42 fibers; IC50 ratio to SEQ ID NO:2
T1 construct: domain: Aβ42; Fibrillar aggregate dry-coated on ELISA plates; number of chains in a fiber not defined; also called ABeta; Abeta
Description: (§1) To each well of a 96-well plate (F96 MAXISORP NUNC-IMMUNO PLATE; Catalog number: 442404, Lot 125436 and 128158; Denmark) was added 200 μL of a 1% BSA solution. The plates were sealed and incubated at 7° C. for 3 hr. Plates were then washed with PBS (250 μL/well)×3. We added 50 μL of the diluted Aβ42 fiber solution (1.6 μM) to each well and incubated uncovered at 37° C. overnight to complete dryness. PBS (50 μl/well) is added to control wells (without Aβ42 fibers). Plates were then washed 2× with water and 1× with PBS (250 μL/well for each washing).
(§2) Varying concentrations of each polypeptide (as well as the polypeptide of SEQ ID NO:2) in 50 μL were added to each well, as well as to non-Aβ42 fiber coated wells and incubated for 1 h at 37° C. Plates were then washed 3× with PBS-T (0.05% Tween 20 in PBS) and 3× with PBS (250 μL/well for each washing). We then added 50 μl of HRP-conjugated Goat anti-Human anti Fcγ (Jackson Labs, Catalog number, 109-035-008, Lot number: 106617) diluted 1:2500 (0.32 μg/mL final) in PBS-T+1% Milk (Difco™ Skim Milk, Becton, Dickinson and Company. USA, Catalog number: 232100, Lot number: 7320448) to each well and incubated for 40 min at 37° C. Plates were then washed 6× with PBS-T and 2× with PBS (250 μL/well for each washing). We then added 50 μl/well OPD solution (5 mg/7.5 ml 0.05 M Citrate buffer pH-5.513 μl H₂O₂) and let color to develop for 3-6 min. We next added 25 μl/well of 4N HCl solution to stop reaction. Plates were read for absorbance at 492 nm and 405 nm. The 405 nm absorbance was subtracted from the 492 nm absorbance and the results plotted as a function of polypeptide concentrations. An IC₅₀ for binding for each deimmunized polypeptide was then calculated and compared to the IC₅₀ calculated for the polypeptide of SEQ ID NO:2.
The above-indicated polypeptides were assayed for binding to beta-amyloid using the ELISA assay set forth in Example 5. Relative binding values reflect IC₅₀ (polypeptide of SEQ ID NO:2)/IC₅₀ (tested polypeptide) (e.g., the lower the value the greater the binding of the polypeptide as compared to a polypeptide of SEQ ID NO:2). Multiple values reflect duplicate testing in the binding assay.

Compared with B1, B2 is higher in “Relative Binding Value”: 0.12 ratio for the first, 0.14 ratio for the second.

Compared with B3, B4 is lower in “Relative Binding Value”: 0.18 ratio for the first, 0.08 ratio for the second.

biological target: T1, Aβ42 fibers; experiment: ELISA on coated Aβ42 fibers; IC50(variant)/IC50(SEQ ID NO:2)
T1 sequence (P05067 672-713 limits assumed): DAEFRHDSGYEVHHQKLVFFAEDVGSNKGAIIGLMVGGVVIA
Description: as §1, §2

Going from B5 to B6, the “IC50 relative to SEQ ID NO: 2” value rises from 0.2 ratio to 0.6 ratio.

Compared with B7, B8 is higher in “IC50 relative to SEQ ID NO: 2” value: 0.3 ratio for the first, 0.4 ratio for the second.

B9 and B10 are the same in “IC50 relative to SEQ ID NO: 2” value: 0.2 ratio for the first, 0.2 ratio for the second.

Going from B11 to B12, the “IC50 relative to SEQ ID NO: 2” value falls from 1.8 ratio to 1.1 ratio.

Going from B13 to B14, the “IC50 relative to SEQ ID NO: 2” value falls from 1.9 ratio to 1.2 ratio.

Going from B15 to B16, the “IC50 relative to SEQ ID NO: 2” value falls from 1 ratio to 0.4 ratio.

Going from B17 to B18, the “IC50 relative to SEQ ID NO: 2” value falls from 0.5 ratio to 0.2 ratio.

Going from B19 to B20, the “IC50 relative to SEQ ID NO: 2” value rises from 0.1 ratio to 0.3 ratio.

Compared with B21, B22 is higher in “IC50 relative to SEQ ID NO: 2” value: 0.1 ratio for the first, 0.3 ratio for the second.

First: B23
Second: B24
The “IC50 relative to SEQ ID NO: 2” value of the first is higher: 0.4 ratio for the first, 0.2 ratio for the second.

First: B25
Second: B26
The “IC50 relative to SEQ ID NO: 2” value of the first is higher: 0.5 ratio for the first, 0.2 ratio for the second.

Compared with B27, B28 is higher in “IC50 relative to SEQ ID NO: 2” value: 0.2 ratio for the first, 0.3 ratio for the second.

Going from B29 to B30, the “IC50 relative to SEQ ID NO: 2” value falls from 0.3 ratio to 0.2 ratio.

B31 and B32 are the same in “IC50 relative to SEQ ID NO: 2” value: 0.2 ratio for the first, 0.2 ratio for the second.

Going from B33 to B34, the “IC50 relative to SEQ ID NO: 2” value rises from 0.4 ratio to 0.8 ratio.

Going from B35 to B36, the “IC50 relative to SEQ ID NO: 2” value rises from 1.5 ratio to 2.5 ratio.

First: B37
Second: B38
The “IC50 relative to SEQ ID NO: 2” value of the first is higher: 0.5 ratio for the first, 0.2 ratio for the second.

Going from B39 to B40, the “IC50 relative to SEQ ID NO: 2” value rises from 0.8 ratio to 2 ratio.

First: B41
Second: B42
The “IC50 relative to SEQ ID NO: 2” value of the first is lower: 0.1 ratio for the first, 0.8 ratio for the second.

Going from B43 to B44, the “IC50 relative to SEQ ID NO: 2” value falls from 0.5 ratio to 0.3 ratio.

First: B45
Second: B46
The “IC50 relative to SEQ ID NO: 2” value of the first is higher: 0.3 ratio for the first, 0.07 ratio for the second.

Where a chain is given by its changes, count along the chain named. In names and notes the source's numbering stands.
